Results reported in PubChem BioAssay (Tox21).
Where “and” joins values, the source holds several entries; their conditions need not be identical. Equal values may be shown once. Inconclusive results, whose numbers are uncertain, are shown with a selection of clear calls. For part of these data: Where the call is inconclusive, the potency comes from a doubtful curve fit. Calls of active or inactive are those of the source. Unless noted, calls come from the whole dose curve; as a rule, active = well fitted curve in the direction sought with a large enough effect in the repeat runs; inconclusive = weak or mixed curves; inactive = no such curve, though single readings can be large; an effect the other way counts as inactive or inconclusive.

Assays:
[1] = qHTS assay to identify small molecule that activate the aryl hydrocarbon receptor (AhR) signaling pathway - cell viability counter screen (AID 743086); note: potency is the fitted concentration of half-maximal effect; nearly all actives have a fitted effect of over 45% in size
Method in brief: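 HepG2-AhR-luc (HG2L7.5c1) cells, 4000/well, treated 24 h at 37 C with compound; viability measured as CellTiter-Fluor fluorescence after 30 min in the same wells as the luciferase read.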

[2] = molecular target: Peroxisome proliferator-activated receptor gamma (Homo sapiens) (UniProt P37231); experiment: qHTS assay to identify small molecule agonists of the peroxisome proliferator-activated receptor gamma (PPARg) signaling pathway (AID 743094; active = well fitted activation curve with a large enough effect in the signal ratio in the repeat runs, not every such curve was filed as active; inconclusive = weak or mixed curves, or effect the other way; inactive = no such curve, though single readings can be large or run the other way; the % refers to the signal ratio; note: % is set by controls: 0 for no effect and ±100 for the full control effect); settings: HEK293H PPARg-UAS-bla, beta-lactamase FRET ratio, 17 h; activation: at 57 µM (top of the series) unless noted
Chain of UniProt P37231 (P37231 whole entry, looked up): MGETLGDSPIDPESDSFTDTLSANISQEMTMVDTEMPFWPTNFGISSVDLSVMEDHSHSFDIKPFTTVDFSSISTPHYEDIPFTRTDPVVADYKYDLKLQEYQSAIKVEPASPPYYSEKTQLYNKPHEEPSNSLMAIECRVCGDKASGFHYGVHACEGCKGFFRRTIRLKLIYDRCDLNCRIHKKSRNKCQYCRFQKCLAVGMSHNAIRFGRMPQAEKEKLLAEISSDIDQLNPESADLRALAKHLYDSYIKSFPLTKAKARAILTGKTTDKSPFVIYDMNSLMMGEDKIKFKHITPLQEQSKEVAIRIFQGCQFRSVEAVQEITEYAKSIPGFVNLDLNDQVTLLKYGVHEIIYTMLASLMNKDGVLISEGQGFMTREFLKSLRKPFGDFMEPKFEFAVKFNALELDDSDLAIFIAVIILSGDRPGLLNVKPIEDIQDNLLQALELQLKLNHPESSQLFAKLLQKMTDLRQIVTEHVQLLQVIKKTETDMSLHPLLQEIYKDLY
Method in brief: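 Agonist activity was taken from a beta-lactamase reporter (FRET substrate, 1 h at room temperature) in HEK293H cells carrying a PPARg UAS-bla construct. Compounds in DMSO were incubated 17 h at 37C after a 5 h cell pre-incubation.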

[3] = molecular target: Peroxisome proliferator-activated receptor gamma (Homo sapiens) (UniProt P37231); experiment: qHTS assay to identify small molecule antagonists of the peroxisome proliferator-activated receptor gamma (PPARg) signaling pathway (AID 743191; calls by dose curve; note: potency is the fitted concentration of half-maximal effect; nearly all actives have a fitted effect of over 30% in size); settings: HEK293H PPARg-UAS-bla, beta-lactamase ratio, antagonist, 17 h; ratio activity, negative = inhibition: at 62.6 µM (top of the series) unless noted
Method in brief: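 GeneBLAzer PPARg UAS-bla HEK293H cells, 5 h post-plating, exposed to compounds 17 h at 37C. LiveBLAzer B/G FRET substrate added for 1 h at room temperature; beta-lactamase reporter read by fluorescence intensity.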

[4] = qHTS assay for small molecule agonists of the antioxidant response element (ARE) signaling pathway (AID 743202; active = well fitted activation curve with a large enough effect in the signal ratio in the repeat runs, not every such curve was filed as active; inconclusive = weak or mixed curves, or effect the other way; inactive = no such curve, though single readings can be large or run the other way; the % refers to the signal ratio; note: potency is the fitted concentration of half-maximal effect); settings: HepG2 ARE-bla reporter, beta-lactamase FRET, 16 h; activation: at 73.3 µM (top of the series) unless noted
Method in brief: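 HepG2 ARE-bla reporter line, 2,000 cells/well; 5 h preincubation 37 C/5% CO2; compound (DMSO) 16 h 37 C; B/G FRET substrate 2 h RT; fluorescence intensity.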

[5] = qHTS assay for small molecule activators of the heat shock response signaling pathway (AID 743210; active = well fitted activation curve with a large enough effect in the signal ratio in the repeat runs, with a control signal flat, not every such curve was filed as active; inconclusive = weak or mixed curves; the % refers to the signal ratio; note: potency is the fitted concentration of half-maximal effect;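 for activation: HeLa cells with beta-lactamase reporter driven by heat shock elements; % is set by controls: 0 for no effect and ±100 for the full control effect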); settings: HeLa HSE-bla reporter, beta-lactamase ratio, 5 h; activation: at 62.6 µM (top of the series)
Method in brief: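 Beta-lactamase reporter read-out: FRET substrate fluorescence after 2.5 h at RT, following 5 h compound treatment at 37 C of HeLa cells carrying HSE-driven bla reporter; quantitative HTS format.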

[6] = qHTS assay to identify small molecule agonists of the peroxisome proliferator-activated receptor delta (PPARd) signaling pathway - cell viability counter screen (AID 743211); settings: PPARd-bla HEK293H viability, CellTiter-Glo luminescence, 17 h; activity change, negative = cytotoxicity: at 62.6 µM (top of the series); note: % is set by controls: 0 for no effect and ±100 for the full control effect; nearly all actives have a fitted effect of over 55% in size
Method in brief: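 Viability was measured as CellTiter-Glo luminescence (30 min, room temperature) in the same wells as the beta-lactamase readout. GeneBLAzer PPARd UAS-bla HEK293H cells received compound after 5 h plating and were incubated 17 h at 37 C.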

[7] = molecular target: Bile acid receptor (Homo sapiens) (UniProt Q96RI1); experiment: qHTS assay to identify small molecule agonists of the farnesoid-X-receptor (FXR) signaling pathway (AID 743220; active = well fitted activation curve with a large enough effect in the signal ratio in the repeat runs, not every such curve was filed as active; inconclusive = weak or mixed curves, or effect the other way; the % refers to the signal ratio; note: potency is the fitted concentration of half-maximal effect); settings: HEK293T FXR-UAS-bla, beta-lactamase FRET ratio, 16 h; activation: at 62.6 µM (top of the series) unless noted
Chain of UniProt Q96RI1 (Q96RI1 whole entry, looked up): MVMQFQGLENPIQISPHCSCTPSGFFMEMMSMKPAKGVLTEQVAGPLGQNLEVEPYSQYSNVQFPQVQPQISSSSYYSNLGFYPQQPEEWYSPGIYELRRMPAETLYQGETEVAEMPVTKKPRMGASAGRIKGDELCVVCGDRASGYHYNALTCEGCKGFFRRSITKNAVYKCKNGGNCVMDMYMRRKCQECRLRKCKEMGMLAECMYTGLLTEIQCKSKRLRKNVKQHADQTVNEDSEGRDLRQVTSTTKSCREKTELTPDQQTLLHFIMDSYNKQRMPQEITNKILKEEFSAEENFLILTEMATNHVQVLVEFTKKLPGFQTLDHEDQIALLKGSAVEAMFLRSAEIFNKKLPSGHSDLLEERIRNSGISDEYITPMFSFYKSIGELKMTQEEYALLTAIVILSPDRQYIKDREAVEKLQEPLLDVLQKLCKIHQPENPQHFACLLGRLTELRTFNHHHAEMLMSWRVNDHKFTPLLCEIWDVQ
Method in brief: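 FXR-UAS-bla HEK 293T cells carrying a UAS-driven beta-lactamase reporter were plated for 5 h at 37C/5% CO2, then exposed to DMSO-dissolved Tox21 10K compounds for 16 h at 37C. A LiveBLAzer B/G FRET substrate was loaded for 2 h at room temperature before fluorescence reading.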

[8] = qHTS assay to identify small molecule antagonists of the peroxisome proliferator-activated receptor gamma (PPARg) signaling pathway - cell viability counter screen (AID 743194); settings: PPARg-bla HEK293H viability, CellTiter-Glo luminescence, 17 h, co-treated with 50 nM rosiglitazone; activity change, negative = cytotoxicity: at 62.6 µM (top of the series) unless noted; note: potency is the fitted concentration of half-maximal effect; nearly all actives have a fitted effect of over 55% in size
Method in brief: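 Cytotoxicity counter screen in PPARg-bla HEK293H cells, same wells as reporter assay. Compounds plus 50 nM rosiglitazone (final) for 17 h at 37 C, then viability read by CellTiter-Glo luminescence.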

[9] = qHTS assay for small molecule agonists of the antioxidant response element (ARE) signaling pathway - cell viability counter screen (AID 743203; calls by dose curve; note: potency is the fitted concentration of half-maximal effect; nearly all actives have a fitted effect of over 55% in size); settings: ARE-bla HepG2 viability, CellTiter-Glo luminescence, 16 h; viability change, negative = cytotoxic: at 73.3 µM (top of the series)
Method in brief: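 Viability counter screen: CellTiter-Glo luminescence, read after 30 min at room temperature, in ARE-bla HepG2 wells. Compound exposure lasted 16 h at 37C/5% CO2, following a 5 h pre-incubation of the cells after plating.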

[10] = molecular target: Peroxisome proliferator-activated receptor delta (Homo sapiens) (UniProt Q03181); experiment: qHTS assay to identify small molecule agonists of the peroxisome proliferator-activated receptor delta (PPARd) signaling pathway (AID 743212; calls by dose curve; note: potency is the fitted concentration of half-maximal effect); settings: HEK293H PPARd-UAS-bla, beta-lactamase FRET ratio, 17 h; activation: at 62.6 µM (top of the series) unless noted
Chain of UniProt Q03181 (Q03181 whole entry, looked up): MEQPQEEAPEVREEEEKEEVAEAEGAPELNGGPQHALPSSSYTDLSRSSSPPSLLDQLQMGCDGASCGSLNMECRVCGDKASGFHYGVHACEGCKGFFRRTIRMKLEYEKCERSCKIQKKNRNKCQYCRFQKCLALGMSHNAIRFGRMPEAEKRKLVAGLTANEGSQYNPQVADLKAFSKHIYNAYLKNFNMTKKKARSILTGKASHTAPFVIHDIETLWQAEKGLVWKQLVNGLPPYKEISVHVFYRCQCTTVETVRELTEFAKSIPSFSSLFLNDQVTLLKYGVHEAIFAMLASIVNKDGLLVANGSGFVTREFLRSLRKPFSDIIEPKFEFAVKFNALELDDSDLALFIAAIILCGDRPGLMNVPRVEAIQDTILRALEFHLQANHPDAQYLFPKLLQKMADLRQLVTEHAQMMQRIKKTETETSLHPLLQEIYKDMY
Method in brief: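 Read-out: beta-lactamase FRET fluorescence after 2 h room-temperature incubation with LiveBLAzer B/G substrate. Cells were HEK293H carrying a UAS-bla reporter for PPARd, treated at 37 C with DMSO-dissolved compounds.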

[11] = qHTS assay to identify small molecule antagonists of the peroxisome proliferator-activated receptor delta (PPARd) signaling pathway - cell viability counter screen (AID 743213); settings: PPARd-bla HEK293H viability, CellTiter-Glo luminescence, 17 h; viability change, negative = cytotoxic: at 62 µM (top of the series) unless noted; note: potency is the fitted concentration of half-maximal effect; nearly all actives have a fitted effect of over 50% in size
Method in brief: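 CellTiter-Glo was added to PPARd-bla HEK293H wells following 17 h compound treatment in the presence of 300 nM L165041. Luminescence was recorded after 30 min at room temperature.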

[12] = molecular target: Peroxisome proliferator-activated receptor delta (Homo sapiens) (UniProt Q03181); experiment: qHTS assay to identify small molecule antagonists of the peroxisome proliferator-activated receptor delta (PPARd) signaling pathway (AID 743215; active = well fitted inhibition curve with a large enough effect in the signal ratio in the repeat runs, not every such curve was filed as active; inconclusive = weak or mixed curves, or effect the other way; inactive = no such curve, though single readings can be large or run the other way; the % refers to the signal ratio;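 note: cells stimulated with agonist L165041 at 300 nM final during compound exposure; potency is the fitted concentration of half-maximal effect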); settings: HEK293H PPARd-UAS-bla, beta-lactamase FRET ratio, antagonist, 17 h; ratio activity, negative = inhibition: at 62 µM (top of the series) unless noted
Method in brief: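 Agonist L165041 (300 nM final) added with compound to PPARd-bla HEK293H UAS-bla reporter cells; 17 h incubation at 37 C. Read-out: LiveBLAzer FRET substrate, 2 h at room temperature, fluorescence intensity.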

[13] = molecular target: Bile acid receptor (Homo sapiens) (UniProt Q96RI1); experiment: qHTS assay to identify small molecule antagonists of the farnesoid-X-receptor (FXR) signaling pathway (AID 743217; active = well fitted inhibition curve with a large enough effect in the signal ratio in the repeat runs, not every such curve was filed as active; inconclusive = weak or mixed curves, or effect the other way; inactive = no such curve, though single readings can be large or run the other way; the % refers to the signal ratio; note: potency is the fitted concentration of half-maximal effect); settings: HEK293T FXR-UAS-bla, beta-lactamase ratio, CDCA-stimulated, 16 h; activity change, negative = inhibition: at 62.6 µM (top of the series) unless noted
Method in brief: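 Antagonist mode: chenodeoxycholic acid at 50 uM final stimulates a UAS-driven beta-lactamase reporter in HEK 293T FXR-bla cells during 16 h, 37C compound exposure. Read-out is FRET substrate fluorescence after 2 h at room temperature.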

[14] = qHTS assay to identify small molecule agonists of the farnesoid-X-receptor (FXR) signaling pathway - cell viability counter screen (AID 743218); settings: FXR-bla HEK293T viability, CellTiter-Glo luminescence, 16 h; viability change, negative = cytotoxic: at 62.6 µM (top of the series) unless noted; note: potency is the fitted concentration of half-maximal effect; nearly all actives have a fitted effect of over 45% in size
Method in brief: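 Viability counter screen in the same wells: CellTiter-Glo luminescence, 30 min room-temperature incubation, measured after the beta-lactamase read. Cells were GeneBLAzer FXR-UAS-bla HEK 293T, compound-treated 16 h at 37C.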

[15] = qHTS assay to identify small molecule antagonists of the farnesoid-X-receptor (FXR) signaling pathway - cell viability counter screen (AID 743221; active = well fitted cell-killing curve with a large enough effect in the repeat runs, not every such curve was filed as active; inconclusive = weak or mixed curves, or effect the other way; inactive = no such curve, though single readings can be large or run the other way; note: potency is the fitted concentration of half-maximal effect; nearly all actives have a fitted effect of over 50% in size); settings: FXR-bla HEK293T viability, CellTiter-Glo luminescence, 16 h; activity change, negative = cytotoxicity: at 62.6 µM (top of the series)
Method in brief: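 Cytotoxicity counter screen run in the FXR-bla reporter wells: HEK 293T cells exposed to compound with 50 uM (final) chenodeoxycholic acid for 16 h, 37 C, then viability measured by CellTiter-Glo luminescence after 30 min, room temperature.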

[16] = molecular target: Vitamin D3 receptor (Homo sapiens) (UniProt P11473); experiment: qHTS assay to identify small molecule agonists of the vitamin D receptor (VDR) signaling pathway (AID 743222; calls by dose curve; note: potency is the fitted concentration of half-maximal effect); settings: HEK293T VDR-UAS-bla, beta-lactamase FRET ratio, 16 h; activation: at 63.5 µM (top of the series) unless noted
Chain of UniProt P11473 (P11473 whole entry, looked up): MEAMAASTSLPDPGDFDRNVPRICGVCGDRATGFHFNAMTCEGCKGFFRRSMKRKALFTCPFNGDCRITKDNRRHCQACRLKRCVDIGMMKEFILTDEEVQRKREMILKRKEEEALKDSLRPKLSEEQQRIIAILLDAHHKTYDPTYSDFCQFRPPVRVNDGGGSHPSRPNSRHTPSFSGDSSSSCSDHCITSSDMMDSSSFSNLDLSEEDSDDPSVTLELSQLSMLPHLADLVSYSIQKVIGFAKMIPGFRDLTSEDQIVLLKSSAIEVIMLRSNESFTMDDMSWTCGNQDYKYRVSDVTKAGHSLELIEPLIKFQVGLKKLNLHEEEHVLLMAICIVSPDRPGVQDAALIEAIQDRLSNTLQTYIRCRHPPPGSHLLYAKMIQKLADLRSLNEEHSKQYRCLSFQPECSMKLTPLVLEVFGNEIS
Method in brief: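 Agonist mode, beta-lactamase reporter: fluorescence from LiveBLAzer B/G FRET substrate (2 h, room temperature) read after 16 h compound treatment at 37 C of VDR-bla cells, which were pre-incubated 4 h after seeding.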

[17] = molecular target: Vitamin D3 receptor (Homo sapiens) (UniProt P11473); experiment: qHTS assay to identify small molecule antagonists of the vitamin D receptor (VDR) signaling pathway (AID 743223; active = well fitted inhibition curve with a large enough effect in the signal ratio in the repeat runs, not every such curve was filed as active; inconclusive = weak or mixed curves, or effect the other way; inactive = no such curve, though single readings can be large or run the other way; the % refers to the signal ratio; note: potency is the fitted concentration of half-maximal effect); settings: VDR-UAS-bla HEK293T, beta-lactamase FRET ratio, 16 h; activity change, negative = inhibition: at 61 µM (top of the series) unless noted
Method in brief: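 Antagonist mode: compound added to VDR-bla cells alongside agonist 1alpha,25-dihydroxyvitamin D3 (3 nM final), incubation 16 h at 37C. Read-out is LiveBLAzer FRET fluorescence, 2 h at room temperature.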

[18] = qHTS assay to identify small molecule antagonists of the vitamin D receptor (VDR) signaling pathway - cell viability counter screen (AID 743225); settings: VDR-bla HEK293T viability, CellTiter-Glo luminescence, 16 h; viability change, negative = cytotoxic: at 61 µM (top of the series) unless noted; note: potency is the fitted concentration of half-maximal effect; nearly all actives have a fitted effect of over 50% in size
Method in brief: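 Cytotoxicity counter screen read by CellTiter-Glo luminescence (30 min, room temperature) in the same wells as the VDR-bla antagonist readout. HEK 293T VDR-UAS-bla cells had 16 h at 37C with compound and 3 nM (final) 1-alpha,25-dihydroxyvitamin D3, then 2 h with FRET substrate.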

[19] = qHTS assay for small molecule activators of the heat shock response signaling pathway - cell viability counter screen (AID 743209); settings: HSE-bla HeLa viability, CellTiter-Glo luminescence, 5 h; activity change, negative = cytotoxicity: at 62.6 µM (top of the series) unless noted; note: potency is the fitted concentration of half-maximal effect; nearly all actives have a fitted effect of over 50% in size
Method in brief: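 Cytotoxicity counter screen run in the same wells as the heat-shock bla reporter assay: HeLa HSE-bla cells, 5 h compound exposure at 37 C, viability read by CellTiter-Glo luminescence.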
Tags give direction and shape of the fitted curve or compound fluorescence and quenching.

Row | Compound | Potency [1] | activation [2] | Potency [3] | Potency [4] | Potency [5] | Potency [6] | Potency [7] | Potency [8] | Potency [9] | Potency [10] | Potency [11] | Potency [12] | Potency [13] | Potency [14] | Potency [15] | Potency [16] | Potency [17] | Potency [18] | Potency [19]
1 | Nc1cc(Cl)c([N+](=O)[O-])cc1O | inconclusive: 54 µM [falling, partial curve] | inconclusive: -11.9% | inconclusive: 10.9 µM [inhibitor, full curve] | inconclusive: 3.83 µM [falling, partial curve, poor fit] | inactive | inactive | inconclusive: 6.86 µM [falling, partial curve, poor fit] | – | – | – | – | – | – | – | – | – | – | – | –
2 | CCCCCCCC/C=C\CCCCCCCCOCCO | inconclusive: 3.55 µM [falling, full curve] | – | inconclusive: 80.2 µM [cytotoxic, single point] | inconclusive: 70.8 µM [falling, partial curve] | inconclusive: 38.7 µM | – | inconclusive: 80.2 µM [falling, single point] | active: 56.8 µM | active: 63.1 µM | inconclusive: 22.6 µM [rising, partial curve] | active: 25.4 µM | inconclusive: 80.2 µM [cytotoxic, single point] | inconclusive: 71.5 µM [cytotoxic, single point] | active: 22.6 µM | active: 28.4 µM | inconclusive: 28.4 µM | inconclusive: 25.4 µM [partial curve] | active: 9 µM | –
3 | CC(C)(c1ccc(O)cc1)c1ccc(O)cc1 | inconclusive: 49.4 µM [phenotype inactive, partial curve, poor fit] | – | inconclusive: 38.5 µM [partial curve] and inconclusive: 15.8 µM | active: 27 µM and active: 17.5 µM | – | – | – | inconclusive: 55.9 µM [cytotoxic, single point] | inconclusive: 0.494 µM [cytotoxic, single point] | – | inconclusive: 136 nM [cytotoxic, partial curve, poor fit] and inconclusive: 55.9 µM [cytotoxic, single point] | active: 24.3 µM and inconclusive: 12.5 µM | – | inconclusive: 17.7 µM [rising, full curve] | inconclusive: 4.44 µM [phenotype inactive, full curve, poor fit] | – | – | – | inconclusive: 0.783 µM [cytotoxic, full curve, poor fit]
